This is an account of results in article PMC12820563, “FoxP3 forms a head-to-head dimer in vivo and stabilizes its multimerization on adjacent microsatellites”.

The list shows a part of the results.

The assay deals with T1, MBP-FoxP1dN (Mus musculus, UniProt P58462 326-579).
T1 sequence: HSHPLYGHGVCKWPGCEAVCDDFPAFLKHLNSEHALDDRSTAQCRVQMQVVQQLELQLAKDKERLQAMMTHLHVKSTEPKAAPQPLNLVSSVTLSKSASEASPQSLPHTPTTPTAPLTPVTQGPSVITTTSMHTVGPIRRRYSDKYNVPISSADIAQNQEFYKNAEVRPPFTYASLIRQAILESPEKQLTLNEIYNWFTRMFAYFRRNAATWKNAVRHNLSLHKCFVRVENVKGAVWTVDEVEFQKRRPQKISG
The assay can be described thus: PD-seq (MBP pull-down with sequencing); 20 mM Tris-HCl pH 7.5, 100 mM NaCl, 1.5 mM MgCl2, 0.4 uM protein, 0.1 uM dsDNA library, 30 min, room temperature, amylose pull-down; high values mean tight binding. Particulars: protein: recombinant; tags: His6-MBP; chain copies: 2; dsDNA, one strand shown. The method, boiled down: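 A degenerate double-stranded DNA library, filled in with Klenow, was added at 0.1 µM to 0.4 µM His6-MBP-tagged mouse FoxP3 or FoxP1 fragment lacking the N-terminus, expressed in E. coli. Incubation lasted 30 min at room temperature in Tris pH 7.5 buffer with NaCl and MgCl2, after which complexes were collected on amylose resin, washed three times, digested with proteinase K to free the DNA, barcoded by PCR and sequenced by Illumina. Binding is the pooled-replicate reads-per-million enrichment of pull-down over input.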
In the case of “GATGATTGTTCTCCCAGCTGATGAATTTGCAATTTCGAGTAAACAAATTTTCCTAATCTTTCTGTTCAAGCGCCATCTAC”, the binding signal is 1.22 RPM ratio (pull-down/input).

As to “GATGATTGTTCTCCCAGCTGATGAATTTTCGTAGTCGAGTAAACAAATTTTCCTAATCTTTCTGTTCAAGCGCCATCTAC”, the binding signal is 1.04 RPM ratio (pull-down/input).

In the case of “GATGATTGTTCTCCCAGCTGATGAATTCGCTTTGTCGAGTAAACAAATTTTCCTAATCTTTCTGTTCAAGCGCCATCTAC”, the binding signal is 0.807 RPM ratio (pull-down/input).

As to “GATGATTGTTCTCCCAGCTGATGAATTGGTATCGTCGAGTAAACAAATTTTCCTAATCTTTCTGTTCAAGCGCCATCTAC”, the binding signal is 1.04 RPM ratio (pull-down/input).

As to “GATGATTGTTCTCCCAGCTGATGAATTCAGAATTTCGAGTAAACAAATTTTCCTAATCTTTCTGTTCAAGCGCCATCTAC”, the binding signal was 0.888 RPM ratio (pull-down/input).

Take “GATGATTGTTCTCCCAGCTGATGAATTTACACCGTCGAGTAAACAAATTTTCCTAATCTTTCTGTTCAAGCGCCATCTAC”: the binding signal is 1.14 RPM ratio (pull-down/input).

In the case of “GATGATTGTTCTCCCAGCTGATGAATTCTGGCGCTCGAGTAAACAAATTTTCCTAATCTTTCTGTTCAAGCGCCATCTAC”, the binding signal is 0.806 RPM ratio (pull-down/input).

In the case of “GATGATTGTTCTCCCAGCTGATGAATTATCACTCTCGAGTAAACAAATTTTCCTAATCTTTCTGTTCAAGCGCCATCTAC”, the binding signal is 0.986 RPM ratio (pull-down/input).

On to “GATGATTGTTCTCCCAGCTGATGAATTAGAATGATCGAGTAAACAAATTTTCCTAATCTTTCTGTTCAAGCGCCATCTAC”, for which the binding signal was 0.914 RPM ratio (pull-down/input).

For “GATGATTGTTCTCCCAGCTGATGAATTCCGTTTTTCGAGTAAACAAATTTTCCTAATCTTTCTGTTCAAGCGCCATCTAC”, the binding signal is 0.919 RPM ratio (pull-down/input).

“GATGATTGTTCTCCCAGCTGATGAATTTTCGTGCTCGAGTAAACAAATTTTCCTAATCTTTCTGTTCAAGCGCCATCTAC”: the binding signal was 0.896 RPM ratio (pull-down/input).

As for “GATGATTGTTCTCCCAGCTGATGAATTTTGAGGTTCGAGTAAACAAATTTTCCTAATCTTTCTGTTCAAGCGCCATCTAC”, the binding signal was 0.883 RPM ratio (pull-down/input).

Regarding “GATGATTGTTCTCCCAGCTGATGAATTAGCGTCGTCGAGTAAACAAATTTTCCTAATCTTTCTGTTCAAGCGCCATCTAC”, the binding signal was 0.918 RPM ratio (pull-down/input).

Regarding “GATGATTGTTCTCCCAGCTGATGAATTGCGATGATCGAGTAAACAAATTTTCCTAATCTTTCTGTTCAAGCGCCATCTAC”, the binding signal is 1.11 RPM ratio (pull-down/input).

With “GATGATTGTTCTCCCAGCTGATGAATTATCCAGATCGAGTAAACAAATTTTCCTAATCTTTCTGTTCAAGCGCCATCTAC”, the binding signal was 0.867 RPM ratio (pull-down/input).

“GATGATTGTTCTCCCAGCTGATGAATTTAAGAAATCGAGTAAACAAATTTTCCTAATCTTTCTGTTCAAGCGCCATCTAC”: the binding signal is 1.07 RPM ratio (pull-down/input).

On to “GATGATTGTTCTCCCAGCTGATGAATTGCGAACATCGAGTAAACAAATTTTCCTAATCTTTCTGTTCAAGCGCCATCTAC”, for which the binding signal is 1.15 RPM ratio (pull-down/input).

“GATGATTGTTCTCCCAGCTGATGAATTGGGTCTCTCGAGTAAACAAATTTTCCTAATCTTTCTGTTCAAGCGCCATCTAC”: the binding signal is 0.824 RPM ratio (pull-down/input).

“GATGATTGTTCTCCCAGCTGATGAATTGCGTAAGTCGAGTAAACAAATTTTCCTAATCTTTCTGTTCAAGCGCCATCTAC”: the binding signal was 1.02 RPM ratio (pull-down/input).

For “GATGATTGTTCTCCCAGCTGATGAATTTCCGGATTCGAGTAAACAAATTTTCCTAATCTTTCTGTTCAAGCGCCATCTAC”, the binding signal is 0.821 RPM ratio (pull-down/input).

Take “GATGATTGTTCTCCCAGCTGATGAATTCGGACCATCGAGTAAACAAATTTTCCTAATCTTTCTGTTCAAGCGCCATCTAC”: the binding signal was 0.851 RPM ratio (pull-down/input).

For the sequence “GATGATTGTTCTCCCAGCTGATGAATTATAGCTTTCGAGTAAACAAATTTTCCTAATCTTTCTGTTCAAGCGCCATCTAC”, the binding signal is 1.03 RPM ratio (pull-down/input).

On to “GATGATTGTTCTCCCAGCTGATGAATTCCGCTACTCGAGTAAACAAATTTTCCTAATCTTTCTGTTCAAGCGCCATCTAC”, for which the binding signal was 0.836 RPM ratio (pull-down/input).

Take “GATGATTGTTCTCCCAGCTGATGAATTATAGATATCGAGTAAACAAATTTTCCTAATCTTTCTGTTCAAGCGCCATCTAC”: the binding signal was 1.03 RPM ratio (pull-down/input).

For the sequence “GATGATTGTTCTCCCAGCTGATGAATTCTGAGCTTCGAGTAAACAAATTTTCCTAATCTTTCTGTTCAAGCGCCATCTAC”, the binding signal was 0.821 RPM ratio (pull-down/input).

As to “GATGATTGTTCTCCCAGCTGATGAATTGATATTCTCGAGTAAACAAATTTTCCTAATCTTTCTGTTCAAGCGCCATCTAC”, the binding signal is 1.06 RPM ratio (pull-down/input).

As to “GATGATTGTTCTCCCAGCTGATGAATTAGCATACTCGAGTAAACAAATTTTCCTAATCTTTCTGTTCAAGCGCCATCTAC”, the binding signal is 1.02 RPM ratio (pull-down/input).

As for “GATGATTGTTCTCCCAGCTGATGAATTCTAAGAGTCGAGTAAACAAATTTTCCTAATCTTTCTGTTCAAGCGCCATCTAC”, the binding signal is 0.872 RPM ratio (pull-down/input).

Consider “GATGATTGTTCTCCCAGCTGATGAATTGTCGCGTTCGAGTAAACAAATTTTCCTAATCTTTCTGTTCAAGCGCCATCTAC”, for which the binding signal is 1.09 RPM ratio (pull-down/input).

For the sequence “GATGATTGTTCTCCCAGCTGATGAATTCACTGAATCGAGTAAACAAATTTTCCTAATCTTTCTGTTCAAGCGCCATCTAC”, the binding signal was 0.855 RPM ratio (pull-down/input).

Consider “GATGATTGTTCTCCCAGCTGATGAATTAATAGTATCGAGTAAACAAATTTTCCTAATCTTTCTGTTCAAGCGCCATCTAC”, for which the binding signal was 1.07 RPM ratio (pull-down/input).

“GATGATTGTTCTCCCAGCTGATGAATTCATGACTTCGAGTAAACAAATTTTCCTAATCTTTCTGTTCAAGCGCCATCTAC”: the binding signal is 0.828 RPM ratio (pull-down/input).

As to “GATGATTGTTCTCCCAGCTGATGAATTCGAGTGTTCGAGTAAACAAATTTTCCTAATCTTTCTGTTCAAGCGCCATCTAC”, the binding signal was 0.892 RPM ratio (pull-down/input).

On to “GATGATTGTTCTCCCAGCTGATGAATTCATGCGTTCGAGTAAACAAATTTTCCTAATCTTTCTGTTCAAGCGCCATCTAC”, for which the binding signal was 1.02 RPM ratio (pull-down/input).

As to “GATGATTGTTCTCCCAGCTGATGAATTGCTACCGTCGAGTAAACAAATTTTCCTAATCTTTCTGTTCAAGCGCCATCTAC”, the binding signal is 1.07 RPM ratio (pull-down/input).

Regarding “GATGATTGTTCTCCCAGCTGATGAATTAAGATCTTCGAGTAAACAAATTTTCCTAATCTTTCTGTTCAAGCGCCATCTAC”, the binding signal was 0.868 RPM ratio (pull-down/input).

“GATGATTGTTCTCCCAGCTGATGAATTTTTTCAATCGAGTAAACAAATTTTCCTAATCTTTCTGTTCAAGCGCCATCTAC”: the binding signal was 1.03 RPM ratio (pull-down/input).

For “GATGATTGTTCTCCCAGCTGATGAATTGAAGATGTCGAGTAAACAAATTTTCCTAATCTTTCTGTTCAAGCGCCATCTAC”, the binding signal was 0.941 RPM ratio (pull-down/input).

With “GATGATTGTTCTCCCAGCTGATGAATTGCGCAATTCGAGTAAACAAATTTTCCTAATCTTTCTGTTCAAGCGCCATCTAC”, the binding signal is 1.29 RPM ratio (pull-down/input).

For “GATGATTGTTCTCCCAGCTGATGAATTTCAACTGTCGAGTAAACAAATTTTCCTAATCTTTCTGTTCAAGCGCCATCTAC”, the binding signal is 0.785 RPM ratio (pull-down/input).
